From patent publication US8697661B2, “Use of spinosyns and spinosyn compositions against herpesviridae viral infections” (priority 2009, dated 2014)

Test system: P. falciparum strains 3D7, FAF6, Dd2, K1
Assay: 48 h SYBR green growth assay, chloroquine sensitive and chloroquine resistant strains
Conditions: ring stage parasites, parasitemia 2%

Q: With Spinosad as the substance, how does the “activity against chloroquine sensitive and resistant strains” value read?
A: equally active
